Experimental data: the supplement of paper PMC10126150
Values marked as one replicate rest on one cluster of the flow cell; about a third of the high ones do not repeat.

system: ATP; test: switch fluorescence ratio, 500 uM ATP over buffer (Cy3 cluster intensity, sum of 5 cycles each) (fold (ratio)); higher = stronger signal-on switching upon ATP binding; sequences stand for … in TCGTCGGCAGCGTCAGATGTGTATAAGAGACAGTTTTTTTTTTTTTTTTTTTTTTTTT…TC; settings: aptamer strand: ATP DNA aptamer (quencher-CACCTGGGGGAGTATTGCGGAGGAAGG + anchor), 100 nM annealed; ATP concentration: 500 uM; one replicate
In short: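 Switching-strand clusters labelled with Cy3 on a modified Illumina MiSeq flow-cell were annealed to 100 nM quencher-labelled ATP aptamer, imaged in selection buffer, and re-imaged after 15 min with 500 uM ATP at 22 °C. This was done over five cycles with NaOH stripping and re-annealing in between. The fluorescence ratio is summed target-cycle over summed buffer-cycle Cy3 intensity per cluster, averaged per switch-domain sequence, excluding clusters outside 100-1000 RFU.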
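Note: ATP exposure 15 min at 22 °C before imaging.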

| Sequence | switch fluorescence ratio |
| --- | --- |
| ACAGCTCCGG | 1.01 |
| ACAGGAAAG | 1.02 |
| ACAGGCCCAC | 1.06 |
| ACAGGCTAGG | 0.978 |
| ACAGGCTAT | 0.998 |
| ACAGGGATTG | 1 |
| ACAGGGGAAC | 1.01 |
| ACAGGTAGCG | 1.05 |
| ACAGGTTTCG | 1.02 |
| ACAGTACGCC | 1.31 |
| ACAGTCGG | 0.999 |
| ACAGTGACTA | 1.08 |
| ACAGTGAGTT | 0.994 |
| ACAGTGGTGC | 1 |
| ACAGTTTTGT | 1.01 |
| ACATACGGAT | 1.37 |
| ACATAGCATC | 1.79 |
| ACATAGGACA | 1.04 |
| ACATAGTGCG | 1 |
| ACATCACATT | 1.27 |
| ACATCACGTA | 1.61 |
| ACATCATGTA | 0.957 |
| ACATCTAGG | 1.05 |
| ACATGACCGA | 1.16 |
| ACATGATGTA | 1.02 |
| ACATGCCCCT | 1.01 |

| Sequence | switch fluorescence ratio |
| --- | --- |
| ACATGCCGT | 1.15 |
| ACATGCTCG | 0.998 |
| ACATGTCCT | 1.05 |
| ACATGTCTCC | 1.11 |
| ACATGTCTTG | 1.07 |
| ACATTTAGTG | 0.98 |
| ACATTTGATG | 0.948 |
| ACCAAAAACG | 1.11 |
| ACCAAAAGGA | 1.22 |
| ACCAATCTCA | 1.06 |
| ACCAATGCAC | 1.19 |
| ACCAATGTAG | 0.986 |
| ACCAATTTAC | 1.22 |
| ACCAGAAAC | 2.02 |
| ACCAGCTGAT | 0.982 |
| ACCAGCTTCC | 3.01 |
| ACCAGGTCGC | 1.15 |
| ACCAGGTTGG | 1.04 |
| ACCAGTCGGG | 0.998 |
| ACCAGTTTGA | 0.976 |
| ACCATAATAC | 3.46 |
| ACCATAGTTT | 1.03 |
| ACCATGTCGG | 0.969 |
| ACCATGTTGC | 1.01 |
| ACCATTTACG | 1.16 |
| ACCCAACGGC | 1.24 |

| Sequence | switch fluorescence ratio |
| --- | --- |
| ACCCAATCAC | 1.88 |
| ACCCAATTC | 1.47 |
| ACCCACTAAT | 1.27 |
| ACCCAGTACG | 1.2 |
| ACCCAGTGTC | 1.67 |
| ACCCATCGTA | 0.947 |
| ACCCCATTTG | 1.19 |
| ACCCCCCTCA | 1.27 |
| ACCCCCGTGG | 1.03 |
| ACCCCCTACA | 1.32 |
| ACCCCGATGC | 2.81 |
| ACCCCTATAG | 1.18 |
| ACCCCTTCCC | 2.74 |
| ACCCGAAGAA | 1.05 |
| ACCCGAATCG | 1.03 |
| ACCCGCGCGA | 1.22 |
| ACCCGTATCA | 1.02 |
| ACCCTA | 1.1 |
| ACCCTGGTAC | 1.03 |
| ACCCTTGCGA | 1.29 |
| ACCGAAAAAG | 1.08 |
| ACCGAAACGC | 1.51 |
| ACCGAATGGG | 0.939 |
| ACCGACTTGA | 1.11 |
| ACCGAGCCCT | 1.04 |
| ACCGAGTGGG | 1.02 |

| Sequence | switch fluorescence ratio |
| --- | --- |
| ACCGATGCG | 1.02 |
| ACCGATTGTC | 1.02 |
| ACCGCAACTT | 2.02 |
| ACCGCACCCC | 2.4 |
| ACCGCATAAG | 2.39 |
| ACCGCGGGTG | 1.63 |
| ACCGCTAGCG | 1.05 |
| ACCGGAACGG | 1.05 |
| ACCGGAGCCA | 2.63 |
| ACCGGATTTA | 0.991 |
| ACCGGCGATT | 1.04 |
| ACCGGCTTCC | 1.09 |
| ACCGGGACGG | 1.03 |
| ACCGGGCGGG | 0.996 |
| ACCGGGTTTG | 1.01 |
| ACCGTAGTTC | 2.08 |
| ACCGTCCGAA | 1.35 |
| ACCGTCCGGA | 1.06 |
| ACCGTGTCAT | 0.994 |
| ACCGTTCAAG | 0.978 |
| ACCGTTCACT | 1.16 |
| ACCTAAAAAA | 0.978 |
| ACCTAAGGG | 1.01 |
| ACCTAATGCG | 1.06 |
| ACCTAATTT | 1.06 |
| ACCTACCCCC | 1.91 |

| Sequence | switch fluorescence ratio |
| --- | --- |
| ACCTAGGACG | 1.07 |
| ACCTAGTATC | 1.1 |
| ACCTATCCTT | 1.1 |
| ACCTCCTTGC | 1.85 |
| ACCTCGAAGT | 1.04 |
| ACCTCGAGTA | 1.06 |
| ACCTCGGATC | 1.07 |
| ACCTCGTCTG | 1.02 |
| ACCTGAGGGT | 1.06 |
| ACCTGATGGG | 1 |
| ACCTGCATTC | 3.6 |
| ACCTGGAGG | 1.04 |
| ACCTGGCTAA | 1.03 |
| ACCTTCAAAC | 1.44 |
| ACCTTCTAGT | 1.05 |
| ACCTTTTACT | 1.12 |
| ACGAAAGCTC | 1.14 |
| ACGAAATGTG | 1.06 |
| ACGAACAGAG | 1.3 |
| ACGAATCCAG | 1.16 |
| ACGACATCTC | 1.15 |
| ACGACCCGGT | 2.42 |
| ACGACGCTGG | 2.5 |
| ACGACGTCTT | 1.09 |
| ACGACTAGAA | 1.08 |
| ACGAGACCAT | 1.11 |

| Sequence | switch fluorescence ratio |
| --- | --- |
| ACGAGAGTGC | 0.963 |
| ACGAGGCTAC | 4.47 |
| ACGAGGCTGG | 1.01 |
| ACGAGGGAC | 1.04 |
| ACGAGTAAAG | 0.987 |
| ACGAGTGGAT | 0.996 |
| ACGATAAATC | 1.08 |
| ACGATACTAT | 1.37 |
| ACGATCGCGT | 0.923 |
| ACGATGAATC | 1.06 |
| ACGATGGAGA | 1.09 |
| ACGATGGTAG | 1.05 |
| ACGATTCGGT | 0.995 |
| ACGATTGACC | 1.15 |
| ACGATTTAA | 0.995 |
| ACGCAACCTA | 1.38 |
| ACGCAATCAG | 6.03 |
| ACGCACGCGC | 1.24 |
| ACGCACGCGT | 1.12 |
| ACGCACGCTC | 1.66 |
| ACGCAGATAA | 1.8 |
| ACGCAGATGA | 1.11 |
| ACGCAGGGCT | 1.3 |
| ACGCCAAAGT | 1.06 |
| ACGCCAGCAC | 1.53 |
| ACGCCATTAT | 0.977 |

| Sequence | switch fluorescence ratio |
| --- | --- |
| ACGCCCCACT | 1.26 |
| ACGCCGAATA | 1.32 |
| ACGCCGGCAG | 1.03 |
| ACGCCTCTGA | 1.13 |
| ACGCCTCTGG | 1.02 |
| ACGCCTTGGA | 0.998 |
| ACGCGACTAG | 1.05 |
| ACGCGCGCTG | 0.981 |
| ACGCGTCAGT | 0.983 |
| ACGCGTCTTG | 1.02 |
| ACGCGTTCGT | 0.985 |
| ACGCTTTACA | 1.27 |
| ACGGAAAGCC | 1.05 |
| ACGGAACGGT | 1.01 |
| ACGGAAGACG | 1.03 |
| ACGGAAGAGG | 1.04 |
| ACGGACCCTC | 1.29 |
| ACGGACGATC | 1.29 |
| ACGGACGCA | 1.15 |
| ACGGAGACCT | 1.18 |
| ACGGAGACTC | 1.17 |
| ACGGAGTACT | 1.08 |
| ACGGAGTATG | 0.983 |
| ACGGAGTCTG | 0.986 |
| ACGGATCGGT | 0.975 |
| ACGGCATAAA | 0.992 |

| Sequence | switch fluorescence ratio |
| --- | --- |
| ACGGCATATG | 1.03 |
| ACGGCCGCCT | 1.01 |
| ACGGGACACG | 1.06 |
| ACGGGACCAA | 1.17 |
| ACGGGACTTA | 1.25 |
| ACGGGATACT | 2.61 |
| ACGGGCACGG | 1.09 |
| ACGGGGAAGA | 1.09 |
| ACGGGGCTAC | 1.42 |
| ACGGGTACGT | 0.998 |
| ACGGGTCGTA | 0.988 |
| ACGGGTGAGG | 1.04 |
| ACGGGTGCAC | 0.999 |
| ACGGGTTGTA | 0.977 |
| ACGGTAAACA | 1.07 |
| ACGGTACGCC | 1.15 |
| ACGGTAGGCA | 1.01 |
| ACGGTATAAA | 1.16 |
| ACGGTATCAG | 1.09 |
